Results on 38 compounds are retold here after the supplement of paper PMC9446081.

The campaign covered roughly 39,000 compounds. About 220 (0.56%) showed activity. The list shows a part of the results.
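Also: static incubation at 37 °C against the wild-type strain, values averaged over two biological replicates.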

The experiment relates to Escherichia coli K-12 BW25113. Nature of the experiment: relative growth (OD600 normalised to plate interquartile mean) (fraction); higher = less growth inhibition, active = 0.2 or less. The note with it: 50 µM; LB; incubation time: overnight (16-24 h).
Take `C[C@@H]1CN([C@@H](C)CO)C(=O)c2cccc(NC(=O)C3CC3)c2O[C@@H]1CN(C)S(=O)(=O)c1ccc(F)cc1`: the relative growth was inactive: 0.994. The value for `C[C@@H]1CN([C@H](C)CO)S(=O)(=O)c2ccc(Br)cc2O[C@H]1CN(C)C(=O)Nc1ccccc1` was inactive: 0.992; that for `C[C@@H]1CCCCO[C@H](CN(C)Cc2ccc(C(F)(F)F)cc2)[C@H](C)CN([C@H](C)CO)C(=O)c2cc(NC(=O)Cc3ccccc3)ccc2O1` was inactive: 1.02. The value for `COc1ccc(CCN(C)CCCOc2ccc(S(=O)(=O)c3[nH]c4ccccc4c3C(C)C)cc2)cc1OC` was inactive: 1.03; that for `OC[C@H]1O[C@H](O)C[C@@H](O)[C@@H]1O` was inactive: 0.927. `C[C@H](CO)N1C[C@H](C)[C@H](CN(C)S(=O)(=O)c2ccc(F)cc2)Oc2c(NC(=O)Nc3ccc(C(F)(F)F)cc3)cccc2C1=O`: the relative growth is inactive: 0.975.

Regarding `C[C@@H]1CN([C@H](C)CO)C(=O)c2cc(NS(C)(=O)=O)ccc2O[C@@H](C)CCCCO[C@@H]1CN(C)S(=O)(=O)c1ccc(F)cc1`, the relative growth was inactive: 0.989.

Take `CCCN(CCC)CCc1cccc2c1CC(=O)N2.Cl`: the relative growth was inactive: 1.19.

As to `c1coc(CNC[C@H]2Cn3nncc3CO2)c1`, the relative growth was inactive: 0.963. The value for `COc1cc(CO)cc(I)c1O[C@H]1C=C(C(=O)NCCO)C[C@@H](NC[C@@H]2CCCO2)[C@@H]1O` was inactive: 0.982. In the case of `COc1cccc(S(=O)(=O)N(C)C[C@H]2Oc3ncc(C#CC(C)C)cc3C(=O)N([C@H](C)CO)C[C@H]2C)c1`, the relative growth was inactive: 0.997. As for `O=C(C[C@H]1C[C@@H]2c3cc(NS(=O)(=O)c4ccc(F)cc4)ccc3O[C@@H]2[C@H](CO)O1)NCc1cccnc1`, the relative growth was inactive: 1.03. The value for `Cc1noc(C)c1NC(=O)Nc1ccc2c(c1)C(=O)N([C@H](C)CO)C[C@@H](C)[C@H](CN(C)Cc1ccc(C(F)(F)F)cc1)OCCCC[C@H](C)O2` was inactive: 0.917; that for `Cc1ccc(S(=O)(=O)Nc2cccc3c2O[C@@H](CN(C)Cc2ccc(C(F)(F)F)cc2)[C@@H](C)CN([C@H](C)CO)C3=O)cc1` was inactive: 1.04. The value for `C[C@@H]1CN([C@H](C)CO)C(=O)c2cccc(NS(=O)(=O)c3ccc(F)cc3)c2O[C@@H]1CN(C)C(=O)Nc1cccc2ccccc12` was inactive: 0.986; that for `CO[C@@H]1CN(C)C(=O)c2ccc(NS(=O)(=O)CC(F)(F)F)cc2OC[C@@H](C)N(C(=O)NC(C)C)C[C@@H]1C` was inactive: 0.978. The value for `COc1ccc(CN(C)C[C@@H]2OCCCC[C@H](C)Oc3ccc(NC(=O)Nc4ccc(OC)cc4)cc3C(=O)N([C@@H](C)CO)C[C@@H]2C)cc1` was inactive: 0.971; that for `Cc1noc(C)c1NC(=O)N(C)C[C@@H]1OCCCC[C@H](C)Oc2ccc(NC(=O)C3CCCCC3)cc2C(=O)N([C@@H](C)CO)C[C@@H]1C` was inactive: 1.04; that for `Cc1noc(C)c1S(=O)(=O)Nc1ccc2c(c1)C(=O)N([C@H](C)CO)C[C@H](C)[C@H](CN(C)Cc1ccncc1)O2` was inactive: 0.999. In the case of `C[C@@H]1CN([C@H](C)CO)C(=O)CCCn2nncc2CO[C@H]1CN(C)C(=O)Nc1ccc2c(c1)OCCO2`, the relative growth was inactive: 0.995. The value for `C[C@H](O)C#Cc1ccc2c(c1)O[C@@H](CN(C)C(=O)c1ccccc1)[C@@H](C)CN([C@@H](C)CO)S2(=O)=O` was inactive: 1.01; that for `CN(C)CC(=O)N1CC2(C1)[C@H](c1ccccc1)[C@H](CO)N2S(C)(=O)=O` was inactive: 0.98. Turning to `COc1ccc(S(=O)(=O)Nc2ccc3c(c2)C(=O)N([C@@H](C)CO)C[C@H](C)[C@H](CN(C)Cc2ccc(Oc4ccccc4)cc2)O3)cc1`, the relative growth is inactive: 0.961. The value for `CCOC(=O)CC(=O)N1CCSC1COc1ccccc1OC` (stereo not drawn) was inactive: 1.11. On to `CC(C)(C)[S@](=O)N1Cc2cc(C(=O)NCc3ccccc3F)nc(-c3cccc(-c4ccncc4)c3)c2[C@@H]1CCO`, for which the relative growth was inactive: 1.01. For the compound `C[C@@H]1CN([C@@H](C)CO)C(=O)Cc2cc(NC(=O)C3CC3)ccc2O[C@@H]1CN(C)S(=O)(=O)c1ccc(F)cc1`, the relative growth was inactive: 0.996. The value for `CC(=O)Oc1ccc(C(c2ccc(OC(C)=O)cc2)c2ccccn2)cc1` was inactive: 1.08; that for `C/C=C1/[C@H](O[C@@H]2O[C@H](CO)[C@@H](O)[C@H](O)[C@H]2O)OC=C(C(=O)OC)[C@H]1CC(=O)OCCc1ccc(O)c(O)c1` was inactive: 1. With `O=C(C[C@@H]1C[C@H]2c3cc(NC(=O)c4ccc5c(c4)OCO5)ccc3O[C@H]2[C@H](CO)O1)NCc1ccc(Oc2ccccc2)cc1` the figure was inactive: 1.06; with `C[C@@H]1CN([C@@H](C)CO)C(=O)c2cc(NC(=O)CCC(F)(F)F)ccc2O[C@@H](C)CCCCO[C@@H]1CN(C)C(=O)Nc1ccccc1`, inactive: 0.968; with `C[C@H](CO)N1C[C@H](C)[C@@H](CN(C)S(=O)(=O)c2ccc(F)cc2)OCCCC[C@H](C)Oc2ccc(NC(=O)C3CCCCC3)cc2C1=O`, inactive: 1.02. Turning to `Cc1noc(C)c1S(=O)(=O)N(C)C[C@H]1OCCCC[C@H](C)Oc2ccc(NS(=O)(=O)c3cn(C)cn3)cc2C(=O)N([C@H](C)CO)C[C@@H]1C`, the relative growth was inactive: 0.996.

With `COc1ccc(NC(=O)N(C)C[C@H]2OCCCC[C@@H](C)Oc3ccc(NS(=O)(=O)c4ccc(C)cc4)cc3C(=O)N([C@@H](C)CO)C[C@@H]2C)cc1`, the relative growth is inactive: 0.992. With `O=C(NC1(c2ccccc2)CC1)c1c(CN2CCC(N3CCCCC3)CC2)c(-c2cccc(C(F)(F)F)c2)nc2cc(Br)ccc12`, the relative growth is inactive: 0.984. Take `C=c1cc(C)ccc1=C1NN=C(N)O1`: the relative growth is inactive: 0.991. With `C[C@H](CO)N1C[C@H](C)[C@H](CN(C)Cc2ccccc2)Oc2c(NC(=O)c3cnccn3)cccc2C1=O` the figure was inactive: 1; with `C[C@@H]1CN([C@@H](C)CO)C(=O)c2cccc(NC(=O)C3CCCCC3)c2O[C@@H]1CN(C)Cc1ccc(Oc2ccccc2)cc1`, inactive: 1.03. With `COc1ccc(C#Cc2cnc3c(c2)C(=O)N([C@@H](C)CO)C[C@H](C)[C@H](CN(C)C(=O)CC2CC2)O3)cc1` the figure was inactive: 1.01.
